# From PubChem BioAssay AID463173 (ICCB-Longwood Screening Facility, Harvard Medical School, 2010)
# Screen size: about 52,000 compounds; about 1,700 (3.3%) were called active. Rule as the data show it: active = survival mostly below about 52% (no sharp cut-off); inactive = mostly above about 56%. Some of the results follow.
# Test system: Wild type
# Experiment: growth inhibition of S. aureus wild type versus tarO mutant, primary screen, teichoic acid synthesis inhibitors, RN4220, OD600 (AID 463173)
# Conditions: S. aureus RN4220 wild type/DeltatarO growth, OD600, 18 h, stronger effect = lower value, screened at 18.75 µg/mL (by protocol)
row,SMILES,survival
1,COC(=O)c1ccc(Nc2ncnc3c2cnn3C)cc1,inactive: 81%
2,Cc1cn2c(=O)cc(COC(=O)c3ccc(NC(=O)c4ccc(F)cc4)cc3)nc2s1,inactive: 70%
3,CCOC(=O)c1ccc(NC(=O)c2cnn3c(=O)c4c(n(CC)c23)CCN(Cc2ccc(OC)cc2)C4)cc1,inactive: 70%
4,CC(Sc1nccn1C)C(=O)Nc1ccccc1C#N (centres undefined),inactive: 79%
5,CCN(CC)c1ccc(NC(=O)c2cc(C)nc3c2c(C)nn3-c2ccc(C)cc2)c(C)c1,inactive: 95%
6,COc1ccc(C2c3[nH]c4ccccc4c3CCN2C(=O)CCC2CCCC2)cc1 (centres undefined),inactive: 80%
7,COc1ccc(CNC(=O)Cc2c(C)c3cc4c(C)coc4cc3oc2=O)cc1OC,inactive: 83%
8,CCN(CC)C(=O)c1sc2c(c1C)c(=O)n(-c1ccc(C)c(C)c1)c(=O)n2Cc1cc(=O)n2ccccc2n1,inactive: 91%
9,COc1ccc(-c2nc3scc(CCNS(=O)(=O)c4ccc(Oc5ccccc5)cc4)n3n2)cc1OC,inactive: 129%
10,Cc1ccsc1CCN1C(=O)N(c2ccccc2)C(=O)C1CC(=O)Nc1ccc(Cl)cc1 (centres undefined),inactive: 80%
11,CC(=O)c1cccc(NC(=O)Nc2sc3nc4n(c(=O)c3c2C)CCC(C)CC4)c1 (centres undefined),inactive: 85%
12,CCN(CC)C(=O)c1sc2c(c1C)c(=O)n(Cc1ccccc1)c(=O)n2Cc1ccccc1C,inactive: 63%
13,O=C(NN=c1c(=O)c2ccccc2c1=O)c1ccncc1,inactive: 104%
14,Cc1ccc2sc(N(Cc3cccnc3)C(=O)CCS(=O)(=O)c3ccccc3)nc2c1C,active: 1%
15,COc1ccc(N2CCN(C(=O)CSc3nc(-c4ccc(C(C)C)cc4)no3)CC2)cc1,inactive: 71%
16,O=C(CNC(=O)c1ccccc1)OCc1cc(=O)n2nc(C3CCCCC3)sc2n1,inactive: 73%
17,Clc1ccc(CN2CCN(c3ncnc4sc5c(c34)CCCC5)CC2)cc1Cl,inactive: 94%
18,COc1ccc(CNC(=O)Cc2c(C(=O)O)c(C)cn2C)cc1,inactive: 83%
19,O=C(NCc1ccc(F)cc1Cl)c1cc(=O)[nH]c2ccc(S(=O)(=O)N3CCCCC3)cc12,inactive: 124%
20,COc1ccc(-c2nc3scc(CCNS(=O)(=O)c4ccc5c(c4)OCCO5)n3n2)cc1OC,inactive: 68%
21,Cc1c(-c2ccccc2)c(=O)oc2ccc(OC(=O)N3CCOCC3)cc12,inactive: 78%
22,CCOc1ccc(C(=O)Nc2c(C(=O)Nc3ccccc3OC)oc3ccccc23)cc1OCC,inactive: 91%
23,Cc1cc(C)cc(OCCSc2nc3ccc(NC(=O)c4cccs4)cc3s2)c1,inactive: 75%

row,SMILES,survival
1,CC(C)c1nc(NCCO)c2nnn(Cc3ccccc3)c2n1,inactive: 106%
2,COC(=O)C1=CNC=C(C(=O)OC)C1c1ccc(Cl)cc1,inactive: 112%
3,O=C(Cn1cc(C(=O)C2CCCCC2)c2ccccc21)Nc1ccccc1Cl,inactive: 76%
4,CCOc1ccc(NC(=O)CSC2=Nc3ccccc3C3=NC(CC(=O)NCc4cccs4)C(=O)N23)cc1 (centres undefined),inactive: 81%
5,COc1cc(-c2cc(OC)c3c(C)oc(C)c3c(=O)c2)ccc1OC(=O)c1ccc(C)cc1,inactive: 65%
6,COCC(=O)N1CCC(n2nnc3cc(F)ccc32)CC1,inactive: 95%
7,COc1ccc2c(C)c(CC(=O)NCCc3ccc(Cl)cc3)c(=O)oc2c1C,inactive: 117%
8,O=C(CSc1n[nH]c(-c2ccccc2Cl)n1)NCCCc1ccccc1,inactive: 67%
9,Cc1nc(N(C)C2CCCCC2)c2nnn(Cc3ccc(F)cc3)c2n1,inactive: 103%
10,CC1=C(c2ccc(C)c(C)c2)S(=O)(=O)N=C1N1CCC(C(=O)NC(C)c2ccccc2)CC1 (centres undefined),inactive: 71%
11,CCCN(CCC)C(=O)c1cc2c(=O)n3cccc(C)c3nc2s1,inactive: 80%
12,CC(CCc1ccccc1)NC(=O)Cn1c(=O)nc(-c2ccccc2)c2cc(Cl)ccc21 (centres undefined),inactive: 71%
13,CCc1ccc2oc(C(=O)N(Cc3ccc(N(C)C)cc3)Cc3ccco3)c(C)c2c1,inactive: 88%
14,Cc1cc(=O)c2cc(Br)ccc2[nH]1,inactive: 106%
15,Cc1ccc(-c2cn3c(n2)sc2cc(C(=O)NCCCN4CCCCCC4)ccc23)cc1,active: -1%
16,COCCNc1c(-c2ccc(OC)c(OC)c2)nc2ccc(Cl)cn12,inactive: 109%
17,O=C1c2ccccc2-c2onc3c(N4CCN(C5CCCCC5)CC4)cc(NCCO)c1c23,inactive: 81%
18,CC(=O)c1cccc(NC(=O)C2CCN(c3ncnc4c3nc3n4CCCCC3)CC2)c1,inactive: 66%
19,O=C(O)c1cc2cc3ccccc3nc2s1,inactive: 112%
20,Cc1ccc(CCNC(=O)C2COc3ccccc3C2)cc1 (centres undefined),inactive: 88%
21,Cc1ccc(S(=O)(=O)c2cn(C)c3cc(N4CCOCC4)c(F)cc3c2=O)c(C)c1,inactive: 84%
22,COc1ccc(N2CCN(c3ncnc4c3nc3n4CCCCC3)CC2)cc1,inactive: 73%
23,Oc1c(C(c2ccc(F)cc2)N2CCCC2)sc2nc(-c3ccco3)nn12 (centres undefined),inactive: 84%

row,SMILES,survival
1,Cc1ccc(Cl)cc1-n1c(=O)c2sc3ccccc3c2n(CC(=O)NC2CCCC2)c1=O,inactive: 31%
2,Cc1ccc2c(c1)-c1onc(C(=O)N3CCN(c4cc(C)ccc4C)CC3)c1CO2,inactive: 86%
3,COc1ccccc1CNS(=O)(=O)c1c(C(=O)N2CCC(C)CC2)c(C)n(C)c1C,inactive: 73%
4,Cc1ccc(CCNC(=O)Cn2ncc3c([nH]c4ccccc43)c2=O)cc1,inactive: 66%
5,COC(=O)C1C(=O)/C(=C/N(C)C)C(=O)CC1(C)C (centres undefined),inactive: 91%
6,N#Cc1cccc(NC(=O)Nc2cccn(Cc3ccccc3)c2=O)c1,inactive: 110%
7,Cc1cc(C)n(-c2nc3cc(Cl)ccc3nc2N2CCN(c3cccc(C)c3C)CC2)n1,active: -1%
8,COc1ccc(C)cc1NC(=O)CSc1nc(=O)n(Cc2cccnc2)c2c1CCC2,inactive: 113%
9,CCCCCN1C(C(=O)c2ccccc2)=C(NC(=O)c2ccc(OC)c(OC)c2)c2ccccc2S1(=O)=O,inactive: 88%
10,O=C(CCn1c(=O)c2cccn2c2ccc(F)cc21)NCCc1ccc(Cl)cc1,inactive: 78%
11,COc1ccc(NC(=O)N2CCC(CN3CCCC3)CC2)c(OC)c1,inactive: 64%
12,O=C(C1CCCN(S(=O)(=O)c2cccc3nonc23)C1)N1CCN(c2ccccc2F)CC1 (centres undefined),inactive: 78%
13,Clc1ccc(-c2ccc(CNCCSc3nnnn3-c3ccccc3)o2)cc1,inactive: 40%
14,COC(=O)c1ccccc1NC(=O)CSc1cc(-c2ccccc2)nc(C)n1,inactive: 92%
15,CC(=O)c1ccc(N2C(=O)N(Cc3ccc(F)cc3)c3ccccc3S2(=O)=O)cc1,inactive: 83%
16,CCN1CCN(c2oc(-c3ccc(COc4ccc(OC)cc4)o3)nc2C#N)CC1,inactive: 75%
17,CC(C)(C)OC(=O)N1CCC(c2c(C(=O)NCCN3CCOCC3)cnn2-c2cccc(F)c2)CC1,inactive: 120%
18,COc1ccc(C2(CNC(=O)C(=O)Nc3ccc(C)c(Cl)c3)CCCC2)cc1OC,inactive: 83%
19,CCN(CC)S(=O)(=O)c1nnc(NC(=O)COc2ccccc2)s1,inactive: 97%
20,O=C(c1cccs1)N1CCN(C(=O)c2cccs2)CC1,inactive: 107%
21,O=C(NCc1cccnc1)C(C(=O)c1ccc(F)cc1)n1ccccc1=O (centres undefined),inactive: 116%
22,O=C(NC1CCCC1)C(c1ccccn1)N(C(=O)c1ccc2c(c1)OCCO2)c1ccccc1 (centres undefined),inactive: 101%
23,Clc1cccc(-n2ncc3c(NCCC4=CCCCC4)ncnc32)c1,inactive: 32%

row,SMILES,survival
1,COc1ccc(OC)c(C(=O)CN2C(=O)N(c3cc(C)cc(C)c3)S(=O)(=O)c3ccccc32)c1,inactive: 81%
2,Cc1cc(O)c(C(c2ccc(F)cc2)N2CCN(c3ccccc3)CC2)c(=O)n1Cc1ccco1 (centres undefined),inactive: 68%
3,Cc1ccc(NC(=O)CSc2nnc(C)s2)c(C)c1,inactive: 79%
4,COc1ccc(NC(=O)C2CCN(c3nc4ccccc4[nH]3)CC2)cc1OC,inactive: 53%
5,COc1ccc(-c2nc(SCC(=O)NCc3nc4ccccc4n3C)n3[nH]c(=O)cc3n2)cc1,inactive: 81%
6,CCCCN1C(=O)C(NC(=O)c2ccc(C(C)(C)C)cc2)(C(F)(F)F)C(C(=O)OC)=C1C (centres undefined),inactive: 61%
7,COc1ccc(OC)c(NC(=O)Nc2cccc(OCc3cc(=O)n4cc(C)ccc4n3)c2)c1,inactive: 78%
8,CC(NC(=O)c1cccc(Nc2nc3ccccc3n3nnnc23)c1)c1ccccc1 (centres undefined),inactive: 127%
9,O=C(CSc1nc2c(c(=O)[nH]1)CCC2)Nc1cccc(O)c1,inactive: 81%
10,Cc1ccc(N2CCN(c3ncnc4onc(-c5ccc(F)cc5)c34)CC2)c(C)c1,inactive: 69%
11,COc1cc(NC(=O)c2c(C)nn(-c3ccc(F)cc3)c2-n2cccc2)cc(OC)c1,inactive: 70%
12,COc1ccc(-n2nnnc2C2CCN(S(=O)(=O)c3cc(Cl)ccc3OC)CC2)cc1,inactive: 81%
13,CCn1c(=O)c2sccc2n2c(CCCC(=O)Nc3ccc(C)cc3)nnc12,inactive: 85%
14,CCC(C)(C)NC(=O)Cn1nnc(-c2ccc(OC)cc2)n1,inactive: 108%
15,COc1ccccc1NC(=O)C(C#N)Cc1cc2cc(C)cc(C)c2[nH]c1=O (centres undefined),inactive: 99%
16,Cc1ccc(S(=O)(=O)NCCc2nnc3ccc(SCc4cccc(F)c4)nn23)cc1,inactive: 95%
17,N#CC(C#N)C(CC(=O)c1ccccc1)c1ccc2c(c1)OCO2 (centres undefined),inactive: 111%
18,N=c1n(CC(N)=O)c2ccccc2n1Cc1ccccc1Cl,inactive: 109%
19,CC(C)CC(=O)Nc1nc2ccc(S(C)(=O)=O)cc2s1,inactive: 102%
20,COc1ccc(CC(=O)Nc2c(C(=O)N3CCN(c4ccccc4F)CC3)oc3ccccc23)cc1OC,inactive: 79%
